Source: the supplement of paper PMC3334620
Whole data set: some 33,000 sequences, median “E-score (-0.5 to 0.5)” near -0.054, cut for the highest 2% near 0.35. Some of the results follow.

Molecular target: T1, Stb5 (UniProt P38699)
T1 sequence: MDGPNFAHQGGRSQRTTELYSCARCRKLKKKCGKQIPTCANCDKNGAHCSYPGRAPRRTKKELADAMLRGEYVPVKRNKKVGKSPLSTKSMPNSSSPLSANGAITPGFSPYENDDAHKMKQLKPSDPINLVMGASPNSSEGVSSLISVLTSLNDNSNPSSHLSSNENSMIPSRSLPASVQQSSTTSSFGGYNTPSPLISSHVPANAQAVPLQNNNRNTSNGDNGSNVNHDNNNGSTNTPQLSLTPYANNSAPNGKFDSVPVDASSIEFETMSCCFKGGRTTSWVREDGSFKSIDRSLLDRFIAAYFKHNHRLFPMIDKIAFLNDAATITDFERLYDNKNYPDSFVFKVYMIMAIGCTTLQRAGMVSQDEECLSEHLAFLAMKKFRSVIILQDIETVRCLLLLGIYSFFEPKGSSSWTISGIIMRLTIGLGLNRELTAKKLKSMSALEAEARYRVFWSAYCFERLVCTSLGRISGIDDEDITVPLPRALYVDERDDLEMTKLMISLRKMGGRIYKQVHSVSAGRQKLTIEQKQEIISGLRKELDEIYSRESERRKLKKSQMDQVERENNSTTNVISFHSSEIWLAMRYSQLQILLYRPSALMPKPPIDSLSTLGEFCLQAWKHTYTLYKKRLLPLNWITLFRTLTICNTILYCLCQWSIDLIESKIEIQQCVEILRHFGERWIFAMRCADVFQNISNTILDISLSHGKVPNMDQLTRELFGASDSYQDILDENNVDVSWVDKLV
Experiment: PBM E-score (8-mer binding enrichment) (E-score (-0.5 to 0.5)); higher = stronger / more preferred TF binding; most listed sequences are background and not binding sites
Conditions: protein concentration: 200 nM; construct: GST-full length
Method in brief: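 Masliner-normalised scans of fluorescent anti-GST signal were the basis for scoring. That signal came from GST-tagged yeast transcription factors applied at about 100-200 nM to double-stranded universal all-10-mer Agilent arrays on fresh or once-stripped slides. Each ungapped eight-base word, pooled with its reverse complement, received an E-score from the Universal PBM Analysis Suite.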

Sequence	PBM E-score
ACTAAGTA	-0.00117
AGGTATGC	-0.0441
AAGGGCGC	0.0221
CCGGCCAC	0.3
CATCTACC	0.111
ATAGTGCG	0.0882
AACACGGA	0.258
ACAGTAAC	0.0245
GGCACGCA	-0.00378
CCCCTAGC	-0.119
CACTGCTA	-0.187
ACGCGGGG	0.348
CGTCCGAG	0.147
AACTAGTG	-0.167
AGACCTAG	-0.251
AGTCGGGG	0.363
CAATCCTA	-0.147
GGCTGACC	-0.309
ATAGGCGA	-0.188
CGTTAGTA	-0.0512
GATAACCA	-0.013
AACAATCG	-0.0578
CGGTCTAC	0.0908
TCGGAGAA	0.293
ACTGGGGC	-0.203

Sequence	PBM E-score
CGACGAGC	-0.013
CCTTAAGC	-0.0951
AGGACATG	-0.118
TCGAGCAA	-0.0922
GCCCAGGC	-0.122
ACTGCAAT	-0.0526
ACCACTGG	-0.0889
CGCCGAAG	0.244
CGACCACA	-0.112
AGCAGCAG	-0.0757
GACGCGCC	-0.0077
ACTCGCGA	-0.151
ACAACGAA	0.0504
ACAATTCC	-0.113
ATCGTTTA	-0.0656
AGCTGGAG	-0.251
ATGCGCCC	0.237
ATGAAGGG	-0.104
GACAGTAA	0.00946
TGAATAAA	-0.0649
CGTTGGGA	0.0257
CTACGGAG	0.322
GCCAGACC	-0.047
CGGGATAG	0.095
CAAGCTAC	-0.217

Sequence	PBM E-score
AGGGCTTG	-0.288
CAATGAAC	-0.124
ACACCACG	-0.0664
ACCATGAG	-0.0914
CTATCGTA	-0.0849
AGATCCTC	-0.216
CAATTTTC	-0.0207
AGGGGGCA	-0.361
ATCTGTTA	-0.241
CGATCCCA	-0.206
AAGAAACT	-0.159
AACATAAT	0.0164
ATTATGGC	-0.0217
GTGGTATA	-0.0221
CAAAATGA	-0.0462
CCCCCTGA	-0.368
ACGAGCAA	-0.156
CCTTATCC	0.00435
CATCGAAA	-0.136
ACTCGATA	-0.0816
AATGTCGG	0.329
AATACGCG	-0.00472
CCCCTATA	-0.0319
TATCATCA	-0.0117
GAATCAGC	-0.094

Sequence	PBM E-score
CCAAAGCG	0.129
ATATTGGG	-0.0282
AGTTAACT	0.111
CATGTCAA	-0.311
AATGACCC	0.0742
ATCTCAAC	-0.0536
CCCTATTA	-0.137
ACAGGGTG	-0.166
AGAGCGCG	0.0352
CAGGCCAA	-0.145
CACCAATC	-0.0305
ACGAGTCT	-0.319
CTGGCAGA	-0.192
CTACGTCA	-0.099
CACGTTAG	-0.179
GGCGTTAA	0.327
ACAGCGGT	0.304
GTCAACTA	-0.174
ATCACGGA	0.217
ACAGAGCC	-0.166
CCGTGTCG	0.201
GAGGAGAC	-0.0683
AGTGTTCA	-0.0169
CTGTGCCC	-0.0978
ACCCGTCC	-0.0174

Sequence	PBM E-score
GAAACCAA	-0.0238
ACGTGCTG	-0.167
AAGCGCGC	0.159
ATAGGGCC	0.133
TCCTAGAA	-0.0339
CCGAGTTC	0.0441
TCCGGGCA	0.179
CGATACGC	0.109
CCTCGATC	-0.191
CCACGGTA	0.27
ACGCGCTG	-0.0586
TGGGGGAA	-0.176
AATGGGGA	-0.165
GTCACCAA	-0.108
GACACAAC	-0.0253
GCATATGA	-0.039
AAACAGTA	-0.118
CGAGCCTA	-0.0743
AAGAGTTA	-0.0879
AATGGGCG	-0.0438
CCTTTAGC	-0.0445
CATACCGC	0.307
AGCTCGTG	-0.0786
GCCTCCAC	-0.032
CTGCACGA	-0.0921

Sequence	PBM E-score
AAACGTTT	0.0205
ACCGATCC	0.282
AGCTCTCC	-0.325
TACAACCA	-0.0508
CTTTTATA	0.0541
ACGAATCC	-0.0664
CCTTACAG	-0.109
CCGCAGTC	0.188
ACGGACGA	0.137
TTGATCAA	-0.16
GTTGCGGA	0.121
CAGTAACA	-0.0341
CCAAGCCC	0.0337
AGCATCTG	-0.148
ATGTTTTA	-0.165
TAACCTGA	-0.0904
AGAGAGCC	-0.32
AGTGCACA	-0.135
AATATGGC	0.0393
AGCCTGTC	-0.22
CAAAATGC	0.0603
CCATGAGA	0.0278
GCTATGTA	-0.0808
AGGGTTAT	-0.137
ATCAGTGG	-0.194

Sequence	PBM E-score
GTGGGATA	0.0707
ACATTGGG	-0.158
ACCAGGCA	-0.187
AGAGGGCC	-0.0658
AAATTGGG	-0.181
ATTCTACA	-0.142
TACTTAGA	-0.235
CTAACGCC	0.316
CACCCGGA	0.218
CCCCGGAC	0.284
CAACGGAG	0.244
CTTACAGC	-0.094
CCACTCAG	-0.204
CTTACTAC	-0.121
ATCGCCCC	0.101
CAGGACTG	-0.144
GGAGGGAC	-0.0156
ATTTTTGG	-0.077
CACACCCA	-0.0756
ACACTAAC	-0.147
ACTAGTGC	-0.15
CGATAGAC	0.0882
